Assay results taken from the supplement of paper PMC11876631.
± gives the standard deviation of the averaged measurements. Laboratory Escherichia coli strains with one amino-acid change in an essential protein, pooled on minimal glucose agar with carbenicillin or gentamicin at twice the control MIC (plus kanamycin and chloramphenicol for the plasmids), 48 h. Fold change of barcode share against drug-free plates; higher = less susceptible. Active = above 20 in both replicates (the paper's putatively resistant). '<' = one read or none on drug, '>' = one read or none on a drug-free plate. Shares are relative, so most strains fall below 1 when a few take over. Listed are strains with at least 15 reads on both drug-free plates, and hits; most hits rest on fewer reference reads. Replicate rank correlation about 0.5. Edits are read from barcodes.

B1: murD V211Q (protein)
chain: MADYQGKNVVIIGLGLTGLSCVDFFLARGVTPRVMDTRMTPPGLDKLPEAVERHTGSLNDEWLMAADLIVASPGIALAHPSLSAAADAGIEIVGDIELFCREAQAPIVAITGSNGKSTVTTLVGEMAKAAGVNVGVGGNIGLPALMLLDDECELYVLELSSFQLETTSSLQAVAATILNVTEDHMDRYPFGLQQYRAAKLRIYENAKVCVQNADDALTMPIRGADERCVSFGVNMGDYHLNHQQGETWLRVKGEKVLNVKEMKLSGQHNYTNALAALALADAAGLPRASSLKALTTFTGLPHRFEVVLEHNGVRWINDSKATNVGSTEAALNGLHVDGTLHLLLGGDGKSADFSPLARYLNGDNVRLYCFGRDGAQLAALRPEVAEQTETMEQAMRLLAPRVQPGDMVLLSPACASLDQFKNFEQRGNEFARLAKELG
B2: murD V211P (protein)
chain: MADYQGKNVVIIGLGLTGLSCVDFFLARGVTPRVMDTRMTPPGLDKLPEAVERHTGSLNDEWLMAADLIVASPGIALAHPSLSAAADAGIEIVGDIELFCREAQAPIVAITGSNGKSTVTTLVGEMAKAAGVNVGVGGNIGLPALMLLDDECELYVLELSSFQLETTSSLQAVAATILNVTEDHMDRYPFGLQQYRAAKLRIYENAKVCVPNADDALTMPIRGADERCVSFGVNMGDYHLNHQQGETWLRVKGEKVLNVKEMKLSGQHNYTNALAALALADAAGLPRASSLKALTTFTGLPHRFEVVLEHNGVRWINDSKATNVGSTEAALNGLHVDGTLHLLLGGDGKSADFSPLARYLNGDNVRLYCFGRDGAQLAALRPEVAEQTETMEQAMRLLAPRVQPGDMVLLSPACASLDQFKNFEQRGNEFARLAKELG
B3: murC L318A (protein)
chain: MNTQQLAKLRSIVPEMRRVRHIHFVGIGGAGMGGIAEVLANEGYQISGSDLAPNPVTQQLMNLGATIYFNHRPENVRDASVVVVSSAISADNPEIVAAHEARIPVIRRAEMLAELMRFRHGIAIAGTHGKTTTTAMVSSIYAEAGLDPTFVNGGLVKAAGVHARLGHGRYLIAEADESDASFLHLQPMVAIVTNIEADHMDTYQGDFENLKQTFINFLHNLPFYGRAVMCVDDPVIRELLPRVGRQTTTYGFSEDADVRVEDYQQIGPQGHFTLLRQDKEPMRVTLNAPGRHNALNAAAAVAVATEEGIDDEAILRAAESFQGTGRRFDFLGEFPLEPVNGKSGTAMLVDDYGHHPTEVDATIKAARAGWPDKNLVMLFQPHRFTRTRDLYDDFANVLTQVDTLLMLEVYPAGEAPIPGADSRSLCRTIRGRGKIDPILVPDPARVAEMLAPVLTGNDLILVQGAGNIGKIARSLAEIKLKPQTPEEEQHD
B4: murC V82A (protein)
chain: MNTQQLAKLRSIVPEMRRVRHIHFVGIGGAGMGGIAEVLANEGYQISGSDLAPNPVTQQLMNLGATIYFNHRPENVRDASVAVVSSAISADNPEIVAAHEARIPVIRRAEMLAELMRFRHGIAIAGTHGKTTTTAMVSSIYAEAGLDPTFVNGGLVKAAGVHARLGHGRYLIAEADESDASFLHLQPMVAIVTNIEADHMDTYQGDFENLKQTFINFLHNLPFYGRAVMCVDDPVIRELLPRVGRQTTTYGFSEDADVRVEDYQQIGPQGHFTLLRQDKEPMRVTLNAPGRHNALNAAAAVAVATEEGIDDEAILRALESFQGTGRRFDFLGEFPLEPVNGKSGTAMLVDDYGHHPTEVDATIKAARAGWPDKNLVMLFQPHRFTRTRDLYDDFANVLTQVDTLLMLEVYPAGEAPIPGADSRSLCRTIRGRGKIDPILVPDPARVAEMLAPVLTGNDLILVQGAGNIGKIARSLAEIKLKPQTPEEEQHD
B5: murC M188Q (protein)
chain: MNTQQLAKLRSIVPEMRRVRHIHFVGIGGAGMGGIAEVLANEGYQISGSDLAPNPVTQQLMNLGATIYFNHRPENVRDASVVVVSSAISADNPEIVAAHEARIPVIRRAEMLAELMRFRHGIAIAGTHGKTTTTAMVSSIYAEAGLDPTFVNGGLVKAAGVHARLGHGRYLIAEADESDASFLHLQPQVAIVTNIEADHMDTYQGDFENLKQTFINFLHNLPFYGRAVMCVDDPVIRELLPRVGRQTTTYGFSEDADVRVEDYQQIGPQGHFTLLRQDKEPMRVTLNAPGRHNALNAAAAVAVATEEGIDDEAILRALESFQGTGRRFDFLGEFPLEPVNGKSGTAMLVDDYGHHPTEVDATIKAARAGWPDKNLVMLFQPHRFTRTRDLYDDFANVLTQVDTLLMLEVYPAGEAPIPGADSRSLCRTIRGRGKIDPILVPDPARVAEMLAPVLTGNDLILVQGAGNIGKIARSLAEIKLKPQTPEEEQHD
B6: murC M188W (protein)
chain: MNTQQLAKLRSIVPEMRRVRHIHFVGIGGAGMGGIAEVLANEGYQISGSDLAPNPVTQQLMNLGATIYFNHRPENVRDASVVVVSSAISADNPEIVAAHEARIPVIRRAEMLAELMRFRHGIAIAGTHGKTTTTAMVSSIYAEAGLDPTFVNGGLVKAAGVHARLGHGRYLIAEADESDASFLHLQPWVAIVTNIEADHMDTYQGDFENLKQTFINFLHNLPFYGRAVMCVDDPVIRELLPRVGRQTTTYGFSEDADVRVEDYQQIGPQGHFTLLRQDKEPMRVTLNAPGRHNALNAAAAVAVATEEGIDDEAILRALESFQGTGRRFDFLGEFPLEPVNGKSGTAMLVDDYGHHPTEVDATIKAARAGWPDKNLVMLFQPHRFTRTRDLYDDFANVLTQVDTLLMLEVYPAGEAPIPGADSRSLCRTIRGRGKIDPILVPDPARVAEMLAPVLTGNDLILVQGAGNIGKIARSLAEIKLKPQTPEEEQHD
B7: murC V192A (protein)
chain: MNTQQLAKLRSIVPEMRRVRHIHFVGIGGAGMGGIAEVLANEGYQISGSDLAPNPVTQQLMNLGATIYFNHRPENVRDASVVVVSSAISADNPEIVAAHEARIPVIRRAEMLAELMRFRHGIAIAGTHGKTTTTAMVSSIYAEAGLDPTFVNGGLVKAAGVHARLGHGRYLIAEADESDASFLHLQPMVAIATNIEADHMDTYQGDFENLKQTFINFLHNLPFYGRAVMCVDDPVIRELLPRVGRQTTTYGFSEDADVRVEDYQQIGPQGHFTLLRQDKEPMRVTLNAPGRHNALNAAAAVAVATEEGIDDEAILRALESFQGTGRRFDFLGEFPLEPVNGKSGTAMLVDDYGHHPTEVDATIKAARAGWPDKNLVMLFQPHRFTRTRDLYDDFANVLTQVDTLLMLEVYPAGEAPIPGADSRSLCRTIRGRGKIDPILVPDPARVAEMLAPVLTGNDLILVQGAGNIGKIARSLAEIKLKPQTPEEEQHD
B8: murC M188D (protein)
chain: MNTQQLAKLRSIVPEMRRVRHIHFVGIGGAGMGGIAEVLANEGYQISGSDLAPNPVTQQLMNLGATIYFNHRPENVRDASVVVVSSAISADNPEIVAAHEARIPVIRRAEMLAELMRFRHGIAIAGTHGKTTTTAMVSSIYAEAGLDPTFVNGGLVKAAGVHARLGHGRYLIAEADESDASFLHLQPDVAIVTNIEADHMDTYQGDFENLKQTFINFLHNLPFYGRAVMCVDDPVIRELLPRVGRQTTTYGFSEDADVRVEDYQQIGPQGHFTLLRQDKEPMRVTLNAPGRHNALNAAAAVAVATEEGIDDEAILRALESFQGTGRRFDFLGEFPLEPVNGKSGTAMLVDDYGHHPTEVDATIKAARAGWPDKNLVMLFQPHRFTRTRDLYDDFANVLTQVDTLLMLEVYPAGEAPIPGADSRSLCRTIRGRGKIDPILVPDPARVAEMLAPVLTGNDLILVQGAGNIGKIARSLAEIKLKPQTPEEEQHD
B9: murC L318W (protein)
chain: MNTQQLAKLRSIVPEMRRVRHIHFVGIGGAGMGGIAEVLANEGYQISGSDLAPNPVTQQLMNLGATIYFNHRPENVRDASVVVVSSAISADNPEIVAAHEARIPVIRRAEMLAELMRFRHGIAIAGTHGKTTTTAMVSSIYAEAGLDPTFVNGGLVKAAGVHARLGHGRYLIAEADESDASFLHLQPMVAIVTNIEADHMDTYQGDFENLKQTFINFLHNLPFYGRAVMCVDDPVIRELLPRVGRQTTTYGFSEDADVRVEDYQQIGPQGHFTLLRQDKEPMRVTLNAPGRHNALNAAAAVAVATEEGIDDEAILRAWESFQGTGRRFDFLGEFPLEPVNGKSGTAMLVDDYGHHPTEVDATIKAARAGWPDKNLVMLFQPHRFTRTRDLYDDFANVLTQVDTLLMLEVYPAGEAPIPGADSRSLCRTIRGRGKIDPILVPDPARVAEMLAPVLTGNDLILVQGAGNIGKIARSLAEIKLKPQTPEEEQHD
B10: murC L318Q (protein)
chain: MNTQQLAKLRSIVPEMRRVRHIHFVGIGGAGMGGIAEVLANEGYQISGSDLAPNPVTQQLMNLGATIYFNHRPENVRDASVVVVSSAISADNPEIVAAHEARIPVIRRAEMLAELMRFRHGIAIAGTHGKTTTTAMVSSIYAEAGLDPTFVNGGLVKAAGVHARLGHGRYLIAEADESDASFLHLQPMVAIVTNIEADHMDTYQGDFENLKQTFINFLHNLPFYGRAVMCVDDPVIRELLPRVGRQTTTYGFSEDADVRVEDYQQIGPQGHFTLLRQDKEPMRVTLNAPGRHNALNAAAAVAVATEEGIDDEAILRAQESFQGTGRRFDFLGEFPLEPVNGKSGTAMLVDDYGHHPTEVDATIKAARAGWPDKNLVMLFQPHRFTRTRDLYDDFANVLTQVDTLLMLEVYPAGEAPIPGADSRSLCRTIRGRGKIDPILVPDPARVAEMLAPVLTGNDLILVQGAGNIGKIARSLAEIKLKPQTPEEEQHD
B11: murC M188A (protein)
chain: MNTQQLAKLRSIVPEMRRVRHIHFVGIGGAGMGGIAEVLANEGYQISGSDLAPNPVTQQLMNLGATIYFNHRPENVRDASVVVVSSAISADNPEIVAAHEARIPVIRRAEMLAELMRFRHGIAIAGTHGKTTTTAMVSSIYAEAGLDPTFVNGGLVKAAGVHARLGHGRYLIAEADESDASFLHLQPAVAIVTNIEADHMDTYQGDFENLKQTFINFLHNLPFYGRAVMCVDDPVIRELLPRVGRQTTTYGFSEDADVRVEDYQQIGPQGHFTLLRQDKEPMRVTLNAPGRHNALNAAAAVAVATEEGIDDEAILRALESFQGTGRRFDFLGEFPLEPVNGKSGTAMLVDDYGHHPTEVDATIKAARAGWPDKNLVMLFQPHRFTRTRDLYDDFANVLTQVDTLLMLEVYPAGEAPIPGADSRSLCRTIRGRGKIDPILVPDPARVAEMLAPVLTGNDLILVQGAGNIGKIARSLAEIKLKPQTPEEEQHD

Target: Escherichia coli (laboratory strain)
Experiment: barcode share on antibiotic plates over drug-free plates; higher = less susceptible
Settings: antibiotic: carbenicillin; 2× MIC (3.1 µg/mL)
Procedure: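 A pool of E. coli strains, each edited to carry one amino-acid change in an essential protein, was grown for 48 h on minimal glucose agar with or without antibiotic; strain barcodes were sequenced; mean of two replicates.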

Protein | fold change of barcode share
B1 | 0.233 ± 0.065
B2 | 0.457 ± 0.027
B3 | 0.2767 ± 0.0027
B4 | 0.196 ± 0.024
B5 | 0.177 ± 0.086
B6 | 0.32 ± 0.15
B7 | 0.0959 ± 0.0026
B8 | 0.307 ± 0.012
B9 | 0.323 ± 0.053
B10 | 0.14 ± 0.035
B11 | 0.228 ± 0.062

Same assay, conditions: antibiotic: gentamicin; 2× MIC (MIC 0.45 µg/mL)

Protein | fold change of barcode share
B1 | < 0.0085
B2 | < 0.00965
B3 | 0.00863 ± 0.0054
B5 | < 0.00271
B6 | 0.00617 ± 0.0025
B8 | 0.00722 ± 0.0024
B9 | 0.016 ± 0.015
B10 | 0.0115 ± 0.011
B11 | 0.00701 ± 0.0049
